From PubChem BioAssay AID588591 (National Center for Advancing Translational Sciences (NCATS), 2011)
Values joined by “and” are separate entries in the source; they are usually repeats but may differ in a detail not shown here. Equal values may be shown once. The whole screen tested about 390,000 compounds, of which about 4,700 (1.2%) were called active. Inconclusive results (about 4%) are left out. The call rests on the fitted dose curve; in most records, active means well fitted inhibition curve with a large enough effect; inconclusive means small, poorly fitted or top-dose-only effect, or another doubt; inactive means no such curve, though single readings can be large or run the other way. Only a part is listed here, and it is no random draw. More than one record can exist for a structure, and the calls need not agree.

Biological target: DNA polymerase eta (Homo sapiens) (UniProt Q9Y253)
UniProt Q9Y253, sequence (Q9Y253 whole entry, looked up): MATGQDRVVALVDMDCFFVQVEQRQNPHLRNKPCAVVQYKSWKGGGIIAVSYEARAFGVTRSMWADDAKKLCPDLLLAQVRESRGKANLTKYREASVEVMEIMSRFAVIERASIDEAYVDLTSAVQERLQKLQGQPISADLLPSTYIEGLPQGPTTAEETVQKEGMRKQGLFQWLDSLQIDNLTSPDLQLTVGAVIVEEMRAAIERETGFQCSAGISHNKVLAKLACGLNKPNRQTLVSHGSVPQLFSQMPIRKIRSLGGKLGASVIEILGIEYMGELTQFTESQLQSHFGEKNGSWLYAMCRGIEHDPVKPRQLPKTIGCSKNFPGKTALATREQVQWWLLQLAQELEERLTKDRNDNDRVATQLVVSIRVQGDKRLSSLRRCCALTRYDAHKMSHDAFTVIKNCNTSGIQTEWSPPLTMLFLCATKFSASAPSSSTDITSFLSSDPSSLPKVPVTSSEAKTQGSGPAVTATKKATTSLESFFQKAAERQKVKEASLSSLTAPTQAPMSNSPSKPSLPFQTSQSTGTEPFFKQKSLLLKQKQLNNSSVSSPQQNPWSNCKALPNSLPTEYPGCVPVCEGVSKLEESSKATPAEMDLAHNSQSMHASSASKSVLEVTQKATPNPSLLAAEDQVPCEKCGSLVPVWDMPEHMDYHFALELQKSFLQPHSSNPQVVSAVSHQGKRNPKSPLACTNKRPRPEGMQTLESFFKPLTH
Test: qHTS for Inhibitors of Polymerase Eta
Conditions: recombinant Pol eta, fluorescent DNA replication assay; series mostly up to 114 µM; activity change, negative = inhibition: at the top concentration
From the text: The Y-family of DNA polymerases, such as Pol eta, are specifically involved in DNA repair. Pol eta copies undamaged DNA with a lower fidelity than other DNA-directed polymerases. However, it accurately replicates UV-damaged DNA; when thymine dimers are present, this polymerase inserts the complementary nucleotides in the newly synthesized DNA, thereby bypassing the lesion and suppressing the mutagenic effect of UV-induced DNA damage. […] Thus, while pol eta's (and most likely iota's) normal function is to protect humans against the deleterious consequences of DNA damage, under certain conditions they can have deleterious effects on human health. As a consequence, we propose to utilize a high throughput replication assay to identify small molecule inhibitors of pol eta. In a collaboration between the National Institute of Child Health & Human Development (NICHD) and NIH Chemical Genomics Center, a high-throughput, fluorescent screen was developed to screen the NIH Molecular Libraries Small Molecule Repository (MLSMR). This screen is used to identify inhibitors of pol eta. NIH Chemical Genomics Center [NCGC] NIH Molecular Libraries Probe Centers Network [MLPCN] MLPCN Grant: MH090825 Assay Submitter (PI): Roger Woodgate, NICHD)
Three microliters of reagents (buffer in column 3 and 4 as negative control and 10 nM Pol eta in columns 1, 2, and 5-48) were dispensed into a 1,536-well black solid-bottomed plate. Compounds (23 nL) were transferred via Kalypsys pin tool equipped with 1536-pin array. The plates were then incubated for 15 min at room temperature, and 1 µL substrate (50 nM final concentration) was added to start the reaction and kinetically read twice at 0 min and 10 min on the Viewlux reader
On the % scale 0 is the no-effect control and ±100 the full control effect; potency means the concentration at half of the fitted maximal effect.

Activity change, negative = inhibition, inactive:
C=CC[C@@H](CC(=O)N(CCO)Cc1ccccc1)C(=O)N[C@H](COC(=O)[C@@H](CC=C)Cc1ccc(F)cc1)Cc1ccccc1 -24.1%, COc1ccc(NC(=O)C(c2ccc(C)cc2)N(C)C(=O)Cc2cccs2)cc1 (centres undefined) -16.9%, Cc1cc(=S)[nH]c(=S)[nH]1 35.3%, COc1cc(C2NC(=O)NC(C)=C2[N+](=O)[O-])cc(OC)c1OC (centres undefined) 41%, CSCC[C@H](NC(=O)CCCn1nnc2ccccc2c1=O)C(=O)O 34.8%, COc1ccc([C@H]2C[C@@H](O)[C@H](n3cc(COC(=O)c4ccccc4)nn3)CN2CC2CCCCC2)cc1 -11.8%, CC(=O)N(OCc1ccc(OC(C)C)c(Cl)c1)C(C)=O 30.5%, C=CCC[C@H](Cc1ccc(F)cc1)C(=O)OC[C@H](Cc1c[nH]c2ccccc12)NC(=O)[C@H](CC=C)CC(=O)N(CCO)Cc1ccccc1 -17.1%, CCCNC(=O)Nc1cc(S(=O)(=O)CC)ccc1O 33.4%, CCN(c1ccc(OC)cc1)S(=O)(=O)c1nnc(NC(=O)COc2ccc(F)cc2)s1 -9.27%, O=C(Nc1ccccc1)Nc1scc2c1c(=O)oc1ccccc12 19.3%, N#C/C(=C\c1ccc(O)c(O)c1)C(=O)c1ccc(O)c(O)c1 -99.6%, CC(=O)c1ccc(OCCOc2ccc(C#N)cc2)cc1 31.7%, O=C(Cn1ccn(-c2ccc(F)c(F)c2)c(=O)c1=O)NCCc1ccccc1 -1.72%, CCOC(=O)c1cc(=O)cc(C(=O)OCC)o1 -9.45%, Nc1ccc([N+](=O)[O-])cc1C(=O)NNC(=O)c1ccco1 21.2%, O=C(CCCN1C(=O)/C(=C/c2ccccc2Cl)SC1=S)NNC(=O)c1cccnc1 36.5%, CCC(=O)Oc1ccc2c(c1)OC1(OC(C)=O)OC(C)CC1=C2C (centres undefined) 30.8%, CO[C@@]1(NC(=O)CSCC#N)C(=O)N2C(C(=O)O)=C(CSc3nnnn3C)CS[C@@H]21 -1.97% [at 57.1 µM], COc1cc2ccc(=O)oc2c(O[C@@H]2O[C@H](CO)[C@@H](O)[C@H](O)[C@H]2O)c1O -22.6%, CCO[C@@H]1OC(C(=O)N2CCCCCCC2)=C[C@H](C2CCCCC2)[C@H]1CCCO -17.5%, Oc1ccc(C[C@@H]2CNCCN2CCc2cc(C(F)(F)F)cc(C(F)(F)F)c2)cc1 -16.2%, Cc1ncc(CO)c2c1Oc1nc(-c3ccccc3)nc(SCC(=O)N3CCCCC3)c1C2 -7.21%, Oc1ccc(NCc2ccccc2OCc2ccccc2)cc1 -23.2%, CCCCCC(=O)N1CCN(CCN=CC2=C(O)CC(c3cccs3)CC2=O)CC1 (centres undefined) 4.9%, Cc1ccc(N2CCN(C(=O)c3nn(C)c4c3CS(=O)(=O)c3ccccc3-4)CC2C)cc1 (centres undefined) -20.5%, CCN1CCN(c2cc(C)c3cc(NC(=O)c4cc(OC)cc(OC)c4)ccc3n2)CC1 -19.1%, Cc1cccc(N2CCN(S(=O)(=O)c3c(C)nc4scc(C)n4c3=O)CC2C)c1 (centres undefined) -7.56%, C[C@H](NC(=O)c1ncn2c1c(=O)[nH]c1ccc(Br)cc12)c1ccccc1 -17.6%, C=CCn1c(=O)c2ccccc2n2c(SCC(=O)/C(C#N)=C(\C)N)nnc12 -10.6%, CC(C)(C)c1ccc(C(O)CCCN2CCC(C(O)(c3ccccc3)c3ccccc3)CC2)cc1 (centres undefined) -4.65%, CC1CCC(C(C)C)C(OC(=O)C[n+]2cc(-c3ccc(Cl)cc3)n3c2CCCCC3)C1 (centres undefined) -20.1%, O=Cc1c(-[n+]2ccccc2)nc([O-])n1-c1ccccc1 -8.14%, CC1=C(C/C=C(\C)CCCC(C)CCCC(C)CCCC(C)C)C(=O)c2ccccc2C1=O (centres undefined) -12.8%, CCOc1ccc(CNC(=O)CCCOc2cc(=O)n(C)c3ccccc23)cc1 -1.22%, CCN(CC)c1ccc(C=N/C(C#N)=C(\N)C#N)cc1 21%, CN(C)c1cccc2c1c(NC(=O)c1ccc(F)cc1)nn2C 34.7%, COc1ccc([C@@H]2CC(=O)c3c(O)cc(O[C@@H]4OC(CO[C@@H]5OC(C)[C@H](O)[C@H](O)C5O)[C@@H](O)[C@@H](O)C4O)cc3O2)cc1O (some centres undefined) -12.1%, CC(=O)Oc1ccc2c(c1)Oc1cc(OC(C)=O)ccc1C21OC(=O)c2ccccc21 256%, Cc1cc(C)[n+](-c2ccc(Oc3ccccc3)c(S(=O)(=O)[O-])c2)[nH]1 -19.7%, O=C(CCCN1C(=O)S/C(=C\C=C\c2ccccc2)C1=O)Nc1ccc(C(=O)O)cc1 -21.6%, CCOC(=O)c1ccc(NC(=O)c2ncn3c2C(=O)NC[C@H]3C)cc1 -1.85%, CC1=C(/C=C/C(C)=C/C=C/C(C)=C\C(=O)O)C(C)(C)CCC1 -4.81%, C/C(=C\c1ccc(C(=O)O)cc1)c1ccc2c(c1)C(C)(C)CCC2(C)C -5.95%, CCc1ccc(CNCc2ccc(OCC(O)CN(C)Cc3ccccc3)cc2)nc1 (centres undefined) 32.2%, CC(/C=C/c1ccccc1)=N\Nc1nc2c(c(=O)[nH]c(=O)n2C)n1CCO 36.1%, COc1ccc(OCc2nc(N)nc(Nc3ccccc3)n2)cc1 4.36%, O=C(C1=C[C@H](c2ccc(C(F)(F)F)cc2)C[C@H](OCCCCO)O1)N1CCN(Cc2ccccc2)CC1 -23.1%, CCOc1ccccc1CNCCNC(=O)c1nonc1N -7.67%, N#C/C(=C\c1ccc(O)c(O)c1)C(=O)NCc1ccccc1 -24.4%, Cc1ccc(N(C(=O)C2CCC(=O)N2)C2(C(=O)NC3CCCCC3)CCCCC2)cc1 (centres undefined) 6.22%, C[C@H]1CN([C@@H](C)CO)C(=O)CCCn2nncc2CO[C@H]1CN(C)C(=O)Nc1cccc(Oc2ccccn2)c1 -4.2%, Cc1ccc(NC(=O)CCCn2c(=O)c3cccn3c3cccnc32)c(Cl)c1 19.7%, CSc1ccc(/C=C(/NC(=O)c2ccc(C)cc2)C(=O)Nc2cccc(C)c2)cc1 5.76%, Cc1cc(C)nc(NS(=O)(=O)c2ccc(N/C=C\C(=O)c3ccc(Cl)cc3)cc2)n1 -18.1%, O=C(NCCO)C(=O)c1c(-c2ccc(Cl)cc2)cc2ccccn12 -19%, Cc1ccc(C)c(NC(=O)Nc2csc3c2CCCC3)c1 16.6%, Cc1ccc(/C=C2\C(=O)ON=C2c2ccccc2)o1 -4.19%, O=C1CC(=O)N(CCc2ccc(F)cc2)C(=O)N1 -2.18%, Cn1c(=O)c(=O)n(C)c2cc(S(=O)(=O)N3CCN(c4ccc(F)cc4)CC3)ccc21 0.119%, CCCCCCCCCCCCC/C=C/[C@@H](O)[C@@H](N)CO -16.3%, Cc1cc(OCC(=O)NCCO)cc(C)c1Cl -1.03%, Cc1ccc(C(=O)Nc2cccc(O)c2)cc1S(=O)(=O)N1CCCCCC1 -13.2%

Potency, active:
C[n+]1cccc2cccc([O-])c21 22.4 µM, Cc1cc(C(=O)O)ccc1-c1ccc(/C=C2\NC(=O)N(Cc3ccc(F)cc3)C2=O)o1 7.08 µM, O=C(COC(=O)/C=C/c1ccc2ccccc2n1)NNC(=O)c1ccccc1 39.8 µM, CC(=O)NS(=O)(=O)c1ccc(NC(=O)c2cc3c(=O)n4ccccc4nc3s2)cc1 39.8 µM, COc1cc([N+](=O)[O-])ccc1NC(=O)Nc1cnccn1 79.4 µM, CCc1ccc(-c2nc(CS(=O)CC(=O)NCc3ccco3)c(C)o2)cc1 (centres undefined) 89.1 µM, CC(C)c1ccc2c(c1)c(SC(C)(C)C)c(CC(C)(C)C(=O)O)n2Cc1ccc(Cl)cc1 35.5 µM and 25.1 µM, Cc1cc(C)n2c(SC/C(O)=C(\C#N)c3nc4ccccc4[nH]3)nnc2n1 3.16 µM, O=C(N/N=C\c1ccc(Br)o1)C1COc2ccccc2O1 (centres undefined) 44.7 µM, NS(=O)(=O)c1ccc(NC(=O)/C=C/c2ccco2)cc1 20 µM, O=C(COC(=O)c1ccccc1)Nc1ncc([N+](=O)[O-])s1 0.794 µM, Cc1c(Cl)cnc(NC(=O)COC(=O)C(NC(=O)c2ccco2)C(C)C)c1Cl (centres undefined) 89.1 µM, COc1cc(/C=C(\C#N)c2nc3ccccc3[nH]2)ccc1OCc1ccc(F)cc1 79.4 µM, NNC(=O)c1cc(NS(=O)(=O)c2cccs2)cc(NS(=O)(=O)c2cccs2)c1 20 µM, CC1(C)Cc2nc3sc4c(SCC(=O)NCc5ccco5)ncnc4c3cc2CO1 22.4 µM, COc1cc(/C=C/C(=O)OCC(=O)Nc2ccc(S(N)(=O)=O)cc2)ccc1O 50.1 µM, CC(/C=C1\SC(=S)N(C(C(=O)O)c2ccccc2)C1=O)=C\c1ccccc1 (centres undefined) 89.1 µM, COC/C=C/C1=CC2=CC(=O)C(C)(OC(=O)c3cnc4ccccc4n3)C(=O)C2=CN1Cc1ccc(OC)cc1 (centres undefined) 28.2 µM, COC(=O)c1ccccc1NC(=O)c1cc2ncc(Br)cn2n1 7.08 µM, CCOc1ccc(-n2ccnc2SCC(=O)Nc2nc3ccc(C)cc3s2)cc1 89.1 µM, C/C(=N\NC(=O)c1cc(-c2cccc([N+](=O)[O-])c2)n[nH]1)c1ccccc1O 8.91 µM, CC(=O)Nc1ccc(NC(=O)Cc2ccc(S(=O)(=O)N3CCCCC3)s2)cc1 12.6 µM, CN=c1scc(C)n1/N=C/c1ccc(O)c(O)c1O 3.55 µM, CCc1nnc(NC(=O)c2sc3nc4c(cc3c2N)CCCCCC4)s1 39.8 µM, CC(=O)C(=Cc1ccc(C(=O)O)cc1)C(C)=O 39.8 µM, Cc1ccc(-c2nn(CCC(=O)O)cc2/C=C\C(=O)c2ccc(Br)cc2)cc1 79.4 µM, C=CCOC(=O)C1=C(C)NC(SCC(=O)OCC)=C(C#N)C1c1ccc(C)cc1 (centres undefined) 17.8 µM, Cc1ccc(S(=O)(=O)N2CCCCC2)cc1NC(=O)Cn1ncc(Cl)c(Cl)c1=O 56.2 µM, CSc1cccc(NC(=O)/C=C/c2ccco2)c1 79.4 µM, O=C(COc1ccc(F)cc1)Nc1nc(-c2cccnc2)cs1 35.5 µM

Potency, inactive:
CN(C)CCCN1c2ccccc2Sc2ccc(Cl)cc21
